In US20240117030A1 (Pfizer, published 2024):

T1: human IL-12 (p35 + p40) (human, UniProt P29459 23-219; P29460 23-328)
T1 sequence (looked up) 1: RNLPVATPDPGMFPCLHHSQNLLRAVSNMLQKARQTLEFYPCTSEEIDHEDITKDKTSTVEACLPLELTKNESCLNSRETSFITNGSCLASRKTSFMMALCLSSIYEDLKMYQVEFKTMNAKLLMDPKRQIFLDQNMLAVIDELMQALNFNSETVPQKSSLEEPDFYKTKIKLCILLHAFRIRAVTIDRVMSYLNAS
T1 sequence (looked up) 2: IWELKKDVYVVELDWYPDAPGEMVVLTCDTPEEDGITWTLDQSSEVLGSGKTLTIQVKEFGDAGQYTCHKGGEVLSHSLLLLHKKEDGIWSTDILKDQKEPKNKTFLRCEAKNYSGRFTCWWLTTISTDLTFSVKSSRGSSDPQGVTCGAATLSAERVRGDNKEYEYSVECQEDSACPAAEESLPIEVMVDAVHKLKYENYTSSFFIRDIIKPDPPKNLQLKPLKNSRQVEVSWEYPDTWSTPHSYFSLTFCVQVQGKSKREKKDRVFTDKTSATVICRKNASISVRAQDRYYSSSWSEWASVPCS

T2: human IL-4 (human, UniProt P05112 25-153)
T2 sequence (looked up): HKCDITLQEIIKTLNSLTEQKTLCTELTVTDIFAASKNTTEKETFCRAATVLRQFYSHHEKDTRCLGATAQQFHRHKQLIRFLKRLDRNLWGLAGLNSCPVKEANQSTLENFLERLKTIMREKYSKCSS

B1: IL413p40-0043 (other)
heavy: EVTLRESGPALVKPTQTLTLTCTFSGFSLSNFGEGLSWIRQPPGKGLEWLAHIYWDDDKRYNPSLKSRLTISKDTSRNQVVLTMTNMDPVDTATYYCARRETVFYWYFDVWGQGTTVTVSSASTKGPSVFPEAPSSKSTSGGTAALGCLVKDYFPEPVTVSWNSGALTSGVHTFPAVLQSSGLYSLGSVVTVPSSSLGTQTYICNVNHKPSNTKVDKKVEPKSCDKTHTCPPCPAPEAAGAPSVFLFPPKPKDTLMISRTPEVTCVVVDVSHEDPEVKFNWYVDGVEVHNAKTKPREEQYNSTYRVVSVLTVLHQDWLNGKEYKCKVSNKALPAPIEKTISKAKGQPREPQVYTLPPCREEMTKNQVSLSCAVKGFYPSDIAVEWESNGQPENNYKTTPPVLDSDGSFFLVSKLTVDKSRWQQGNVFSCSVMHEALHNHYTQKSLSLSPGK
chain 1: [about 200 residues not written out]GGGGSEVQLVESGGGLVQPGGSLRLSCAASGFTFSSYAMSWVRQAPGKGLEWVASISSGDTTYYPDSVKGRFTISRDNAKNSLYLQMNSLRAEDTAVYYCARNEGYYFGLTLWGQGTLVTVSSASTKGPSVFPKAPSSKSTSGGTAALGCLVKDYFPEPVTVSWNSGALTSGVHTFPAVLQSSGLYSLSSSVTVPSSSLGTQTYICNVNHKPSNTKVDKKVEPKSCDKTHTCPPCPAPEAAGAPSVFLFPPKPKDTLMISRTPEVTCVVVDVSHEDPEVKFNWYVDGVEVHNAKTKPREEQYNSTYRVVSVLTVLHQDWLNGKEYKCKVSNKALPAPIEKTISKAKGQPREPQVCTLPPSREEMTKNQVSLWCLVKGFYPSDIAVEWESNGQPENNYKTTPPVLDSDGSFFLYSKLTVDKSRWQQGNVFSCSVMHEALHNHYTQKSLSLSPGK
light 1: DIQMTQSPSSLSASVGDRVTITCKASQSVDEDGDSYMNWYQQKPGKAPKLLIYAASNLESGVPSRFSGSGSGTDFTLTISSLQPEDFATYYCQQSNEDPPTFGGGTKVEIKRTVAAPSVFIFPPSDEQLKSGTASVSCLLNNFYPREAKVQWKVDNALQSGNSQESVTEQDSKDSTYSLKSTLTLSKADYEKHKVYACEVTHQGLSSPVTKSFNRGEC
light 2: DIQMTQSPSSLSASVGDRVTITCKASESVDHFGWSLVHWYQQKPGKAPKLLIYRASNLESGVPSRFSGSGSGTDFTLTISSLQPEDFATYYCQQSNEDPWTFGGGTKVEIKRTVAAPSVFIFPPSDEQLKSGTASVSCLLNNFYPREAKVQWKVDNALQSGNSQESVTEQDSKDSTYSLDSTLTLSKADYEKHKVYACEVTHQGLSSPVTKSFNRGEC
chain 2: EVQLVQSGAEVKKPGESLKISCKGSGYSFTTYWLGWVRQMPGKGLDWIGIMSPVDSDIRYSPSFQGQVTMSVDKSITTAYLQWNSLKASDTAMYYCARRRPGQGYFDFWGQGTLVTVSSASTKGPSVFPLAPSSKSTSGGTAALGCLVKDYFPEPVTVSWNSGALTSGVHTFPAVLQSSGLYSLSSVVTVPSSSLGTQTYICNVNHKPSNTKVDKKVEPKSC
B2: IL413p40-0044 (other)
heavy: EVQLVESGGGLVQPGGSLRLSCAASGFTFSSYAMSWVRQAPGKGLEWVASISSGDTTYYPDSVKGRFTISRDNAKNSLYLQMNSLRAEDTAVYYCARNEGYYFGLTLWGQGTLVTVSSASTKGPSVFPKAPSSKSTSGGTAALGCLVKDYFPEPVTVSWNSGALTSGVHTFPAVLQSSGLYSLSSSVTVPSSSLGTQTYICNVNHKPSNTKVDKKVEPKSCDKTHTCPPCPAPEAAGAPSVFLFPPKPKDTLMISRTPEVTCVVVDVSHEDPEVKFNWYVDGVEVHNAKTKPREEQYNSTYRVVSVLTVLHQDWLNGKEYKCKVSNKALPAPIEKTISKAKGQPREPQVCTLPPSREEMTKNQVSLWCLVKGFYPSDIAVEWESNGQPENNYKTTPPVLDSDGSFFLYSKLTVDKSRWQQGNVFSCSVMHEALHNHYTQKSLSLSPGK
chain 1: [about 200 residues not written out]GGGGSEVTLRESGPALVKPTQTLTLTCTFSGFSLSNFGEGLSWIRQPPGKGLEWLAHIYWDDDKRYNPSLKSRLTISKDTSRNQVVLTMTNMDPVDTATYYCARRETVFYWYFDVWGQGTTVTVSSASTKGPSVFPEAPSSKSTSGGTAALGCLVKDYFPEPVTVSWNSGALTSGVHTFPAVLQSSGLYSLGSVVTVPSSSLGTQTYICNVNHKPSNTKVDKKVEPKSCDKTHTCPPCPAPEAAGAPSVFLFPPKPKDTLMISRTPEVTCVVVDVSHEDPEVKFNWYVDGVEVHNAKTKPREEQYNSTYRVVSVLTVLHQDWLNGKEYKCKVSNKALPAPIEKTISKAKGQPREPQVYTLPPCREEMTKNQVSLSCAVKGFYPSDIAVEWESNGQPENNYKTTPPVLDSDGSFFLVSKLTVDKSRWQQGNVFSCSVMHEALHNHYTQKSLSLSPGK
light 1: DIQMTQSPSSLSASVGDRVTITCKASESVDHFGWSLVHWYQQKPGKAPKLLIYRASNLESGVPSRFSGSGSGTDFTLTISSLQPEDFATYYCQQSNEDPWTFGGGTKVEIKRTVAAPSVFIFPPSDEQLKSGTASVSCLLNNFYPREAKVQWKVDNALQSGNSQESVTEQDSKDSTYSLDSTLTLSKADYEKHKVYACEVTHQGLSSPVTKSFNRGEC
light 2: DIQMTQSPSSLSASVGDRVTITCKASQSVDEDGDSYMNWYQQKPGKAPKLLIYAASNLESGVPSRFSGSGSGTDFTLTISSLQPEDFATYYCQQSNEDPPTFGGGTKVEIKRTVAAPSVFIFPPSDEQLKSGTASVSCLLNNFYPREAKVQWKVDNALQSGNSQESVTEQDSKDSTYSLKSTLTLSKADYEKHKVYACEVTHQGLSSPVTKSFNRGEC
chain 2: EVQLVQSGAEVKKPGESLKISCKGSGYSFTTYWLGWVRQMPGKGLDWIGIMSPVDSDIRYSPSFQGQVTMSVDKSITTAYLQWNSLKASDTAMYYCARRRPGQGYFDFWGQGTLVTVSSASTKGPSVFPLAPSSKSTSGGTAALGCLVKDYFPEPVTVSWNSGALTSGVHTFPAVLQSSGLYSLSSVVTVPSSSLGTQTYICNVNHKPSNTKVDKKVEPKSC
B3: IL413p40-0648 (other)
heavy: EVQLVESGGGLVQPGGSLRLSCAASGFTFSSYAMSWVRQAPGKGLEWVASISTGDTTYYPDSVKGRFTISRDNAKNSLYLQMNSLRAEDTAVYYCARNEGYYFGLTQWGRGTLVTVSSASTKGPSVFPKAPSSKSTSGGTAALGCLVKDYFPEPVTVSWNSGALTSGVHTFPAVLQSSGLYSLSSSVTVPSSSLGTQTYICNVNHKPSNTKVDKKVEPKSCDKTHTCPPCPAPEAAGAPSVFLFPPKPKDTLMISRTPEVTCVVVDVSHEDPEVKFNWYVDGVEVHNAKTKPREEQYNSTYRVVSVLTVLHQDWLNGKEYKCKVSNKALPAPIEKTISKAKGQPREPQVCTLPPSREEMTKNQVSLWCLVKGFYPSDIAVEWESNGQPENNYKTTPPVLDSDGSFFLYSKLTVDKSRWQQGNVFSCSVLHEALHSHYTQKSLSLSPGK
chain 1: [about 200 residues not written out]GGGGSEVTLRESGPALVKPTQTLTLTCTFSGFSLSNFGEGLSWIRQPPGKGLEWLAHIYWDDDKRYSTSLKTRLTISKDTSRNQVVLTMTNMDPVDTATYYCARRETVFYWYFDVWGQGTTVTVSSASTKGPSVFPEAPSSKSTSGGTAALGCLVKDYFPEPVTVSWNSGALTSGVHTFPAVLQSSGLYSLGSVVTVPSSSLGTQTYICNVNHKPSNTKVDKKVEPKSCDKTHTCPPCPAPEAAGAPSVFLFPPKPKDTLMISRTPEVTCVVVDVSHEDPEVKFNWYVDGVEVHNAKTKPREEQYNSTYRVVSVLTVLHQDWLNGKEYKCKVSNKALPAPIEKTISKAKGQPREPQVYTLPPCREEMTKNQVSLSCAVKGFYPSDIAVEWESNGQPENNYKTTPPVLDSDGSFFLVSKLTVDKSRWQQGNVFSCSVLHEALHSHYTQKSLSLSPGK
light 1: DIQMTQSPSSLSASVGDRVTITCRASESVDHFGWSLVHWYQQKPGKAPKLLIYRADSLETGVPSRFSGSGSGTDFTLTISSLQPEDFATYYCQQSNEDPWTFGGGTKVEIKRTVAAPSVFIFPPSDEQLKSGTASVSCLLNNFYPREAKVQWKVDNALQSGNSQESVTEQDSKDSTYSLDSTLTLSKADYEKHKVYACEVTHQGLSSPVTKSFNRGEC
light 2: DIQMTQSPSSLSASVGDRVTITCRASQSVDEEGDSYMNWYQQKPGKAPKLLIYAASNLESGVPSRFSGSGSGTDFTLTISSLQPEDFATYYCQQSHKDPPTFGGGTKVEIKRTVAAPSVFIFPPSDEQLKSGTASVSCLLNNFYPREAKVQWKVDNALQSGNSQESVTEQDSKDSTYSLKSTLTLSKADYEKHKVYACEVTHQGLSSPVTKSFNRGEC
chain 2: EVQLVQSGAEVKKPGESLKISCKGSGYSFTTYWLGWVRQMPGKGLDWIGIMSPVDSDIRYSPSFQGQVTMSVDKSITTAYLQWNSLKASDTAMYYCARRRPGQGYFDFWGQGTLVTVSSASTKGPSVFPLAPSSKSTSGGTAALGCLVKDYFPEPVTVSWNSGALTSGVHTFPAVLQSSGLYSLSSVVTVPSSSLGTQTYICNVNHKPSNTKVDKKVEPKSC

What was measured:
Assay in all cases: cell-based or functional assay
human IL-13 = human IL-13 (human, UniProt P35225 part only)
human IL-12 (p35 + p40) = target: T1, human IL-12 (p35 + p40)
human IL-4 = target: T2, human IL-4

Sequence of human IL-13 (P35225 35-146 limits assumed): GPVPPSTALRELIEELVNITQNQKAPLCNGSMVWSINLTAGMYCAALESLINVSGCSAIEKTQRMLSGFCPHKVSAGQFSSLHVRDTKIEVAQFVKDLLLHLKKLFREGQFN

Binder	a-hIL-13 bioassay (IC50, pM) (human IL-13)	anti-IL12 bioassay IC50 (human IL-12 (p35 + p40))	a-hIL-4 bioassay IC50, pM) (human IL-4)
B1	15.1 pM	2.6 nM	5.1 pM
B2	9.14 pM	3.03 nM	8.11 pM
B3	18.7 pM		26.4 pM
